We go through 32 sequences from PMC12820563, “FoxP3 forms a head-to-head dimer in vivo and stabilizes its multimerization on adjacent microsatellites”.

Some of the results follow.

This experiment has as its target T1, MBP-FoxP1dN (Mus musculus, UniProt P58462 326-579).
T1 sequence: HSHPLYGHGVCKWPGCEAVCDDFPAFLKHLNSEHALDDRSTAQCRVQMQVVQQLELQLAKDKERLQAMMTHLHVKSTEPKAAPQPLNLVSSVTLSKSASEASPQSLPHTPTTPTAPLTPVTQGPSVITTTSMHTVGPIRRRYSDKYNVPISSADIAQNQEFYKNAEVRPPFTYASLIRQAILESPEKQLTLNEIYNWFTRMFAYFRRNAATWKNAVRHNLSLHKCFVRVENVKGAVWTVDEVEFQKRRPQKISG
The experiment is described as follows: PD-seq (MBP pull-down with sequencing); 20 mM Tris-HCl pH 7.5, 100 mM NaCl, 1.5 mM MgCl2, 0.4 uM protein, 0.1 uM dsDNA library, 30 min, room temperature, amylose pull-down; high values mean tight binding. The following applies: protein: recombinant; tags: His6-MBP; chain copies: 2; dsDNA, one strand shown. An outline of the steps: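 In Tris pH 7.5 buffer with NaCl and MgCl2, 0.4 µM His6-MBP-tagged mouse FoxP3 or FoxP1 fragment lacking the N-terminus, from E. coli, met 0.1 µM Klenow-filled double-stranded degenerate DNA library for 30 min at room temperature. Three washes on amylose resin followed capture of the complexes, then proteinase K release of DNA, PCR barcoding and Illumina sequencing. Binding is taken as pooled-replicate reads-per-million enrichment of pull-down relative to input.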
As to “GATGATTGTTCTCCCAGCTGATGAATTCCCGCCTTCGAGTAAACAAATTTTCCTAATCTTTCTGTTCAAGCGCCATCTAC”, the binding signal is 0.932 RPM ratio (pull-down/input). As for “GATGATTGTTCTCCCAGCTGATGAATTGATATTGTCGAGTAAACAAATTTTCCTAATCTTTCTGTTCAAGCGCCATCTAC”, the binding signal is 2.35 RPM ratio (pull-down/input). Under “GATGATTGTTCTCCCAGCTGATGAATTTTTAATATCGAGTAAACAAATTTTCCTAATCTTTCTGTTCAAGCGCCATCTAC” stands 1.24 RPM ratio (pull-down/input); under “GATGATTGTTCTCCCAGCTGATGAATTTCATATCTCGAGTAAACAAATTTTCCTAATCTTTCTGTTCAAGCGCCATCTAC”, 0.89 RPM ratio (pull-down/input); under “GATGATTGTTCTCCCAGCTGATGAATTAATGCTGTCGAGTAAACAAATTTTCCTAATCTTTCTGTTCAAGCGCCATCTAC”, 1.37 RPM ratio (pull-down/input). Consider “GATGATTGTTCTCCCAGCTGATGAATTAGTAAATTCGAGTAAACAAATTTTCCTAATCTTTCTGTTCAAGCGCCATCTAC”, for which the binding signal is 1.2 RPM ratio (pull-down/input).

Consider “GATGATTGTTCTCCCAGCTGATGAATTTAGGCCTTCGAGTAAACAAATTTTCCTAATCTTTCTGTTCAAGCGCCATCTAC”, for which the binding signal was 0.957 RPM ratio (pull-down/input). As to “GATGATTGTTCTCCCAGCTGATGAATTGAATGCTTCGAGTAAACAAATTTTCCTAATCTTTCTGTTCAAGCGCCATCTAC”, the binding signal was 1.1 RPM ratio (pull-down/input). As to “GATGATTGTTCTCCCAGCTGATGAATTATCTAACTCGAGTAAACAAATTTTCCTAATCTTTCTGTTCAAGCGCCATCTAC”, the binding signal is 0.938 RPM ratio (pull-down/input). For “GATGATTGTTCTCCCAGCTGATGAATTCTTTATATCGAGTAAACAAATTTTCCTAATCTTTCTGTTCAAGCGCCATCTAC”, the binding signal was 1.02 RPM ratio (pull-down/input). “GATGATTGTTCTCCCAGCTGATGAATTCACAAAGTCGAGTAAACAAATTTTCCTAATCTTTCTGTTCAAGCGCCATCTAC”: the binding signal was 0.841 RPM ratio (pull-down/input).

For the sequence “GATGATTGTTCTCCCAGCTGATGAATTTTGGCGTTCGAGTAAACAAATTTTCCTAATCTTTCTGTTCAAGCGCCATCTAC”, the binding signal is 0.983 RPM ratio (pull-down/input). For “GATGATTGTTCTCCCAGCTGATGAATTATCTCATTCGAGTAAACAAATTTTCCTAATCTTTCTGTTCAAGCGCCATCTAC”, the binding signal is 1.03 RPM ratio (pull-down/input). For “GATGATTGTTCTCCCAGCTGATGAATTTTGGTAATCGAGTAAACAAATTTTCCTAATCTTTCTGTTCAAGCGCCATCTAC”, the binding signal is 1.46 RPM ratio (pull-down/input). Turning to “GATGATTGTTCTCCCAGCTGATGAATTAACCACTTCGAGTAAACAAATTTTCCTAATCTTTCTGTTCAAGCGCCATCTAC”, the binding signal is 0.924 RPM ratio (pull-down/input).

As to “GATGATTGTTCTCCCAGCTGATGAATTGCGTTATTCGAGTAAACAAATTTTCCTAATCTTTCTGTTCAAGCGCCATCTAC”, the binding signal was 1.27 RPM ratio (pull-down/input).

For “GATGATTGTTCTCCCAGCTGATGAATTCTAAGGTTCGAGTAAACAAATTTTCCTAATCTTTCTGTTCAAGCGCCATCTAC”, the binding signal is 0.801 RPM ratio (pull-down/input). With “GATGATTGTTCTCCCAGCTGATGAATTACCGGGGTCGAGTAAACAAATTTTCCTAATCTTTCTGTTCAAGCGCCATCTAC”, the binding signal is 0.823 RPM ratio (pull-down/input).

On to “GATGATTGTTCTCCCAGCTGATGAATTCTCAACTTCGAGTAAACAAATTTTCCTAATCTTTCTGTTCAAGCGCCATCTAC”, for which the binding signal was 0.844 RPM ratio (pull-down/input). Under “GATGATTGTTCTCCCAGCTGATGAATTCACTTAGTCGAGTAAACAAATTTTCCTAATCTTTCTGTTCAAGCGCCATCTAC” stands 0.871 RPM ratio (pull-down/input); under “GATGATTGTTCTCCCAGCTGATGAATTTCTGTAATCGAGTAAACAAATTTTCCTAATCTTTCTGTTCAAGCGCCATCTAC”, 1.49 RPM ratio (pull-down/input).

Turning to “GATGATTGTTCTCCCAGCTGATGAATTCAAGGCCTCGAGTAAACAAATTTTCCTAATCTTTCTGTTCAAGCGCCATCTAC”, the binding signal was 0.822 RPM ratio (pull-down/input). Take “GATGATTGTTCTCCCAGCTGATGAATTTGCCGTTTCGAGTAAACAAATTTTCCTAATCTTTCTGTTCAAGCGCCATCTAC”: the binding signal was 0.923 RPM ratio (pull-down/input). Consider “GATGATTGTTCTCCCAGCTGATGAATTACACACTTCGAGTAAACAAATTTTCCTAATCTTTCTGTTCAAGCGCCATCTAC”, for which the binding signal is 1.26 RPM ratio (pull-down/input). Take “GATGATTGTTCTCCCAGCTGATGAATTACGGCTATCGAGTAAACAAATTTTCCTAATCTTTCTGTTCAAGCGCCATCTAC”: the binding signal was 0.95 RPM ratio (pull-down/input). For “GATGATTGTTCTCCCAGCTGATGAATTACACGGCTCGAGTAAACAAATTTTCCTAATCTTTCTGTTCAAGCGCCATCTAC”, the binding signal was 0.917 RPM ratio (pull-down/input). The same measure for “GATGATTGTTCTCCCAGCTGATGAATTCAGTAATTCGAGTAAACAAATTTTCCTAATCTTTCTGTTCAAGCGCCATCTAC”: 1.02 RPM ratio (pull-down/input). As for “GATGATTGTTCTCCCAGCTGATGAATTATTGGTGTCGAGTAAACAAATTTTCCTAATCTTTCTGTTCAAGCGCCATCTAC”, the binding signal was 1.41 RPM ratio (pull-down/input). Take “GATGATTGTTCTCCCAGCTGATGAATTGCCTTGTTCGAGTAAACAAATTTTCCTAATCTTTCTGTTCAAGCGCCATCTAC”: the binding signal was 0.911 RPM ratio (pull-down/input). For “GATGATTGTTCTCCCAGCTGATGAATTTAAGCAATCGAGTAAACAAATTTTCCTAATCTTTCTGTTCAAGCGCCATCTAC”, the binding signal is 1.22 RPM ratio (pull-down/input). Turning to “GATGATTGTTCTCCCAGCTGATGAATTAAACCTTTCGAGTAAACAAATTTTCCTAATCTTTCTGTTCAAGCGCCATCTAC”, the binding signal was 0.928 RPM ratio (pull-down/input). Turning to “GATGATTGTTCTCCCAGCTGATGAATTTACACTCTCGAGTAAACAAATTTTCCTAATCTTTCTGTTCAAGCGCCATCTAC”, the binding signal is 1.33 RPM ratio (pull-down/input).
